Source: PubChem BioAssay (NCI)
Several values for one entry are separate records, joined by “and”; a condition that tells them apart may be missing. Equal entries are not always repeated.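 Grown in 96-well plates, cells were treated for 48 hours with each compound at five concentrations. Insufficient inhibition: endpoint recorded as highest concentration tested. GI50 = concentration required for 50% inhibition of growth. TGI: total growth inhibition.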

system: NCI-H322M lung; assay: inhibition of tumour cell growth, NCI panel, 48 h

| Compound | GI50 | TGI |
| --- | --- | --- |
| Cn1cc(C2=C(c3cn(CCSC(=N)N)c4ccccc34)C(=O)NC2=O)c2ccccc21 | 3.98 µM | 8.64 µM |
| CN1CCN(c2ccc3nc(-c4c5cccccc-5[nH]c4=O)[nH]c3c2)CC1 | 13.9 µM | 62.4 µM |
| COc1ccc(/C=C2/N=C(N/N=C\C(O)C(O)C(O)C(O)CO)NC2=O)cc1 (stereo not given) | – | > 100 µM |
| Cc1ccc(-c2cc(C(=O)N3N=C(c4ccc(N)cc4)CC3c3ccc(Cl)cc3)c3ccccc3n2)cc1 (stereo not given) | 4.73 µM | > 100 µM |
| COc1cccc(C2C(C(=O)O)=C(CO)Oc3cc4c(cc32)OCO4)c1OC (stereo not given) | – | > 100 µM |
| COc1ccc(CC#N)c(OCc2ccccc2)c1 | – | 74.4 µM |
| COc1cc(C2c3[nH]c4ccccc4c3[C@@H](Nc3ccc(F)cc3)[C@H]3COC(=O)N23)cc(OC)c1O (stereo not given in full) | – | > 10 µM |
| CC(=O)NC1C(OCc2ccccc2)OC(CO)C(O)C1OCC(=O)N1CCCC1C(=O)N[C@@H](CCC(=O)NCCNCCNc1c2ccccc2nc2cccc([N+](=O)[O-])c12)C(N)=O (stereo not given in full) | – | 35.8 µM |
| CNC(=O)N(C1=NCC(C)S1)c1ccc(C)c(C)c1 (stereo not given) | – | > 100 µM |
| CCCCOC(=O)NC(Nc1ccc(S(N)(=O)=O)cc1)(C(F)(F)F)C(F)(F)F | – | > 100 µM |
| CC1=C(C(=O)CC(=O)C(=O)Nc2ccccc2C(F)(F)F)Sc2ccccc2N1 | – | > 100 µM |
| C[C@]12CC[C@@H]3c4cc(Br)c(O)c(Br)c4CC[C@H]3[C@@H]1CCC2=O | – | 48.3 µM |
| C1CN1c1nc(N2CC2)nc(N2CC2)n1 | – | 54.4 µM and 53.8 µM |
| COc1ccc(OC)c(N2C(=O)/C(=C\c3ccccc3)SC2c2cc(OC)c(OC)c(OC)c2)c1 (stereo not given) | – | > 100 µM |
| COc1ccc(C=Nc2c(O)ccc3ccccc23)cc1OC | – | > 100 µM |
| c1ccc([P+](CCN2Cc3ccccc3C2)(c2ccccc2)c2ccccc2)cc1 | – | 79.7 µM |
| Cn1cc(NC(=O)[C@H]2CCC(N)=N2)cc1C(=O)NCCC(=N)N | – | > 100 µM |
| C[C@]12CCC3c4ccc(O)cc4CCC3C1CC[C@@]2(O)C#Cc1ccc(C#C/C=C\C#Cc2ccccc2N)cc1 (stereo not given in full) | 12.6 µM | 56.7 µM |
| COc1cc(-c2cc(=O)c3c(OC)c(OC)c(OC)c(OC)c3o2)cc(OC)c1OC | – | > 100 µM |
| COc1cc(O)c2c(=O)c(OC)c(-c3ccc(OC)c(OC)c3)oc2c1.[Co] | – | > 100 µM |
| COc1ccc2c(c1)c(=O)c1c(NCCN(C)C)ccc3c(=O)n(CCN(C)C)c(=O)n2c31 | – | 0.6 µM |
| CCOC(=O)c1cc2c(c3ccsc13)C1(C)CCC3c4ccc(OC)cc4CCC3C1C2 (stereo not given) | > 100 µM | > 100 µM |
| COC1CC(C)(N)C(O)C(C)O1 (stereo not given) | – | > 100 µM |
| Cc1nc2cc(-n3c(-c4ccc(F)cc4)nc4ccccc4c3=O)ccc2n1Cc1ccccc1 | 4.89 µM | 24.8 µM |

| Compound | GI50 | TGI |
| --- | --- | --- |
| CCCCCCCCC1=CCC(CN(C)C)C1=O (stereo not given) | – | > 100 µM |
| O=C(O)c1ccccc1CC1Cc2ccccc2C1 | – | > 100 µM |
| Brc1ccc(N=NN2CCCC2)cc1 | – | > 100 µM |
| CCC(=C(C#N)C#N)c1cc(OC)c(OC)c(OC)c1 | – | > 100 µM |
| CNC(=O)C(C)C1C(=O)/C(=C(O)/C=C\C(C)=C\C(C)C2OC3(C)OC(C=CC34CO4)C2C)C(=O)N1C1CCC(O)C(C)O1 (stereo not given) | – | > 100 µM |
| CC(=O)[CH-]C(C)=O.CC(=O)[CH-]C(C)=O.[CH2-]CCCCCCC.[CH2-]CCCCCCC.[Sn+4] | 21.2 µM | 52.3 µM |
| COc1ccc(/C=N/C2=C(C#N)C(c3ccccc3)c3c(ccc4ccccc34)O2)cc1 (stereo not given) | 3.89 µM | > 100 µM |
| CCCCCCC1NN(C(C)=O)C(CCCCCC)NN1C(C)=O (stereo not given) | – | > 100 µM |
| CCCCCCc1nn2c(-c3ccncc3)nnc2s1 | – | > 10 µM |
| CN(C)c1ccc2nc3ccc(N)cc3[n+](-c3ccccc3)c2c1 | 15 µM and 4.43 µM | 71.9 µM and 29.5 µM |
| C/C(O)=C/c1nc2ccccc2[nH]1 | – | > 100 µM |
| Cc1cccc(C)c1NC(=O)/C(Cc1nc2ccc([N+](=O)[O-])cc2[nH]c1=O)=N\NC(N)=O | – | > 100 µM |
| O=C1c2ccccc2CCC1C(O)(C(F)(F)F)C(F)(F)F (stereo not given) | – | > 100 µM |
| COc1ccc(S(=O)(=O)Nc2cc(/C=C\c3cc(OC)c(OC)c(OC)c3)cc(OC)c2OC)cc1 | 0.0553 µM | > 100 µM |
| O=C(O)C1CCCN1C(=O)c1cc(Cl)ccn1 (stereo not given) | – | > 100 µM |
| Cc1noc(C)c1C1=CCCCc2ccccc21 | – | > 100 µM |
| CCOc1cc2c[n+](C)c3c4cc(OC)c(OC)cc4ccc3c2cc1OC | – | > 100 µM |
| COc1ccc(CCn2nccc2C)cc1 | – | > 100 µM |
| COc1cccc(/C=N/Nc2ncnc3c2cnn3-c2cccc(OC)c2)c1 | > 25 µM | > 25 µM |
| NNC1=N/C(=C\c2ccccc2O)C(=O)N1 | – | > 100 µM |
| CN(C)CCNc1ccc2c(=O)n(CCN(C)C)c(=O)n3c4ccccc4c(=O)c1c23 | – | 0.97 µM |
| Cc1cc(C)c2c(=O)n(CN3CCC(C#N)(c4ccccc4)CC3)sc2n1 | – | > 100 µM |
| C[C@@H](O)[C@H]1C(=O)N2C(C(=O)O)=C(SCCN=CN)C[C@H]12 | 2.18 µM | 6.03 µM |
| Cc1ccc(S(=O)(=O)NC(=O)Nc2ccc(C(=O)O)c(O)c2)cc1 | – | > 100 µM |

| Compound | GI50 | TGI |
| --- | --- | --- |
| CCOC(=O)C(NC(=O)CC(C)C)(NC(C)C)C(F)(F)F (stereo not given) | – | > 100 µM |
| CCOC(=O)C1=C(C)N(c2ccc(OC)cc2)C2(O)C=CC(=O)C3C(=O)N(c4ccccc4)C(=O)C132 (stereo not given) | 4.35 µM | 14.3 µM |
| Nc1nc2c(nc(N)n2Cc2ccccc2)c(=O)[nH]1 | – | > 100 µM |
| c1ccc2cc(CN3CCC(C4CCN(Cc5ccc6ccccc6c5)CC4)CC3)ccc2c1 | – | 19.4 µM |
| O=C(CCN1CCCC1)CC(c1ccccc1)c1c(O)c2ccccc2oc1=O (stereo not given) | – | > 100 µM |
| Clc1ccc(C2c3ccccc3-c3nccn32)c(Cl)c1 (stereo not given) | 14 µM | 27.2 µM |
| O=C(O)C(Cc1c[nH]c2ccccc12)C(=O)NO (stereo not given) | – | > 100 µM |
| COc1ccc(/C(=N\N=C(N)N)C(c2ccc(OC)cc2)C2OC(=O)c3ccccc32)cc1 (stereo not given) | – | > 100 µM |
| CCCNC(=O)C(C)(Cl)C(=O)c1ccccc1O (stereo not given) | – | > 100 µM |
| COC1CC(OC2C(C)OC(OC3C(C)OC(OC4C(C)OC(O[C@H]5CC[C@@]6(C)C(=CC[C@]7(O)[C@@H]6C[C@@H](OC(=O)/C=C/c6ccccc6)[C@@]6(C)[C@]7(O)CC[C@@]6(O)C(C)=O)C5)CC4OC)CC3OC)CC2OC)OC(C)C1O (stereo not given in full) | – | > 12.5 µM |
| O=C(/C=C/c1ccc(OCCSCCCCCCCCCCSCCOc2ccc(/C=C/C(=O)c3ccc(Cl)cc3)cc2)cc1)c1ccc(Cl)cc1 | – | > 100 µM |
| CCC12CCCN(Cc3ccccc3)C1c1c(n(C)c3ccccc13)[C@H](C(=O)OC)C2 (stereo not given in full) | – | > 239 µM |
| Nc1cc2c(nc3c4ccccc4c(N)cc3[n+]2-c2cccc3ccccc23)c2ccccc12 (tested in a mixture with another compound) | – | 18.9 µM |
| COc1ccc(C(=O)/C=C2\C(=O)Nc3ccc(Br)cc32)cc1 | – | 32.4 µM |
| NC(N)=C1CN(C2CCCCC2)C(=O)NC1=O | – | > 100 µM |
| Cc1cc(C)c(C#N)c(SC(=S)NC(=O)c2ccc(Cl)cc2)n1 | – | > 100 µM |
| Nc1nc(N)c2cc(CNc3ccc(C(=O)NC(CC(=O)O)C(=O)O)cc3)ccc2n1 (stereo not given) | 0.406 µM | > 100 µM |
| CC1=NN(c2nc(N)nc(/C(C#N)=C\C3COc4ccccc4C3=O)n2)C(C)(C)C1 (stereo not given) | – | > 100 µM |
| CC1CCC2(NC1)OC1CC3C4CCC5CC(OC6OC(CO)C(OC7OC(CO)C(O)C(OC8OCC(O)C(O)C8O)C7OC7OC(CO)C(O)C(O)C7O)C(O)C6O)CCC5(C)C4CCC3(C)C1C2C (stereo not given) | – | 3.73 µM |
| O=c1[nH]nc(Cc2ccccc2)n1/N=C\CC/C=N\n1c(Cc2ccccc2)n[nH]c1=O | – | > 100 µM |
| O=C1C=CC(=O)c2ccc(=O)ccc21 | – | 25.6 µM |
| CC1(CO)OC(n2cnc3cncnc32)CC1O (stereo not given) | – | > 100 µM |
